The text below walks through data of patent US20220073613A1, “ACTIVATABLE MASKED ANTI-CTLA4 BINDING PROTEINS” (Xilio Development, Inc., priority 2018, published 2022).

Numbering of substitutions follows the chain as printed.

To fix the notation:
B1: Antibody 2-7: masked Antibody 2-6: mask CPFPALELC, cleavable peptide VPLSLY; SEQ ID NO: 424 and 421 (protein)
light: ACPFPALELCGGSGGSVPLSLYSGGEIVLTQSPDFQSVTPKEKVTITCSANSALSYMYWYQQKPDQSPKLWVHGTSNLASGVPSRFSGSGSGTDFTLTINSLEAEDAATYYCHHWSNTQWTFGGGTKVEIKRTVAAPSVFIFPPSDEQLKSGTASVVCLLNNFYPREAKVQWKVDNALQSGNSQESVTEQDSKDSTYSLSSTLTLSKADYEKHKVYACEVTHQGLSSPVTKSFNRGEC
heavy: QVQLVQSGAEVKKPGSSVKVSCKASGYTFTNYFMNWVRQAPGQGLEWMGRVDPEQGRADYAEKFKKRVTITADKSTSTAYMELSSLRSEDTAVYYCARRAMDNYGFAYWGQGTLVTVSS[human IgG1 constant region with changes left out here]
B2: Antibody 2-9: masked Antibody 2-6: mask CPFPALELC, cleavable peptide HEQLTV; SEQ ID NO: 426 and 421 (protein)
light: B1 light with G14S, G15P, S16P, V17H, P18E, L19Q, S20L, L21T, Y22V
heavy: QVQLVQSGAEVKKPGSSVKVSCKASGYTFTNYFMNWVRQAPGQGLEWMGRVDPEQGRADYAEKFKKRVTITADKSTSTAYMELSSLRSEDTAVYYCARRAMDNYGFAYWGQGTLVTVSS[human IgG1 constant region with changes left out here]
B3: Antibody 2-8: masked Antibody 2-6: mask CPFPALELC, cleavable peptide MPYDLYHP; SEQ ID NO: 425 and 421 (protein)
light: ACPFPALELCGGPGSSPMPYDLYHPSGGEIVLTQSPDFQSVTPKEKVTITCSANSALSYMYWYQQKPDQSPKLWVHGTSNLASGVPSRFSGSGSGTDFTLTINSLEAEDAATYYCHHWSNTQWTFGGGTKVEIKRTVAAPSVFIFPPSDEQLKSGTASVVCLLNNFYPREAKVQWKVDNALQSGNSQESVTEQDSKDSTYSLSSTLTLSKADYEKHKVYACEVTHQGLSSPVTKSFNRGEC
heavy: QVQLVQSGAEVKKPGSSVKVSCKASGYTFTNYFMNWVRQAPGQGLEWMGRVDPEQGRADYAEKFKKRVTITADKSTSTAYMELSSLRSEDTAVYYCARRAMDNYGFAYWGQGTLVTVSS[human IgG1 constant region with changes left out here]
B4: Antibody 2-12: masked Antibody 2-6: mask CPFPALELC, cleavable peptide KPILFFRL; SEQ ID NO: 431 and 421 (protein)
light: ACPFPALELCGSPGSPKPILFFRLSGGEIVLTQSPDFQSVTPKEKVTITCSANSALSYMYWYQQKPDQSPKLWVHGTSNLASGVPSRFSGSGSGTDFTLTINSLEAEDAATYYCHHWSNTQWTFGGGTKVEIKRTVAAPSVFIFPPSDEQLKSGTASVVCLLNNFYPREAKVQWKVDNALQSGNSQESVTEQDSKDSTYSLSSTLTLSKADYEKHKVYACEVTHQGLSSPVTKSFNRGEC
heavy: QVQLVQSGAEVKKPGSSVKVSCKASGYTFTNYFMNWVRQAPGQGLEWMGRVDPEQGRADYAEKFKKRVTITADKSTSTAYMELSSLRSEDTAVYYCARRAMDNYGFAYWGQGTLVTVSS[human IgG1 constant region with changes left out here]
B5: Antibody 2-13: masked Antibody 2-6: mask CPFPALELC, cleavable peptide RAAAVKSP; SEQ ID NO: 429 and 421 (protein)
light: ACPFPALELCGGSSPPRAAAVKSPSGGEIVLTQSPDFQSVTPKEKVTITCSANSALSYMYWYQQKPDQSPKLWVHGTSNLASGVPSRFSGSGSGTDFTLTINSLEAEDAATYYCHHWSNTQWTFGGGTKVEIKRTVAAPSVFIFPPSDEQLKSGTASVVCLLNNFYPREAKVQWKVDNALQSGNSQESVTEQDSKDSTYSLSSTLTLSKADYEKHKVYACEVTHQGLSSPVTKSFNRGEC
heavy: QVQLVQSGAEVKKPGSSVKVSCKASGYTFTNYFMNWVRQAPGQGLEWMGRVDPEQGRADYAEKFKKRVTITADKSTSTAYMELSSLRSEDTAVYYCARRAMDNYGFAYWGQGTLVTVSS[human IgG1 constant region with changes left out here]
B6: Antibody 2-11: masked Antibody 2-6: mask CPFPALELC, cleavable peptide GGIGQLTA; SEQ ID NO: 428 and 421 (protein)
light: ACPFPALELCSSPSPSGGGGIGQLTASGGEIVLTQSPDFQSVTPKEKVTITCSANSALSYMYWYQQKPDQSPKLWVHGTSNLASGVPSRFSGSGSGTDFTLTINSLEAEDAATYYCHHWSNTQWTFGGGTKVEIKRTVAAPSVFIFPPSDEQLKSGTASVVCLLNNFYPREAKVQWKVDNALQSGNSQESVTEQDSKDSTYSLSSTLTLSKADYEKHKVYACEVTHQGLSSPVTKSFNRGEC
heavy: QVQLVQSGAEVKKPGSSVKVSCKASGYTFTNYFMNWVRQAPGQGLEWMGRVDPEQGRADYAEKFKKRVTITADKSTSTAYMELSSLRSEDTAVYYCARRAMDNYGFAYWGQGTLVTVSS[human IgG1 constant region with changes left out here]

One assay has as its system peripheral blood mononuclear cells (PBMCs).
Test: not given
In kind it is cell-based, human. Conditions: after protease treatment (activated).
As to B1, the IL-2 production entry was “at levels similar to the unmasked parental Antibody 2-6”.

As to B2, the IL-2 production entry was “at levels similar to the unmasked parental Antibody 2-6”.

Turning to B3, the IL-2 production entry is given as “at levels similar to the unmasked parental Antibody 2-6”.

The same assay, now with this note: non-activated (without exposure to protease); compared to isotype control.
Regarding B1, the IL-2 production result was “did not promote a significant increase in IL-2 production”.

Consider B2, for which the IL-2 production result is listed as “did not promote a significant increase in IL-2 production”.

As for B3, the IL-2 production entry is recorded as “did not promote a significant increase in IL-2 production”.

B4: the IL-2 production result was “significant increase in IL-2 production”.

B5: the IL-2 production result is recorded as “did not promote a significant increase in IL-2 production”.

Regarding B6, the IL-2 production result is on record as “did not promote a significant increase in IL-2 production”.

A further assay concerns the target T1, human CTLA4-Fc (Homo sapiens, UniProt P16410).
T1 construct: purchased R&D Systems 7268-CT
Briefly: Low density antigen binding ELISA, with or without protease activation. The note with it: Table 7, absence of protease; EC50 masked antibody / EC50 Antibody 2-6. As to the method:
Masked antibodies were buffer exchanged into MMP cleavage buffer prior to incubation with the protease. For activation, protease (Anaspec, ProsecBio, and R&D Systems) was diluted to 100 ng/μL in MMP cleavage buffer (50 mM Tris pH 8.0, 150 mM NaCl, 10 mM CaCl2). APMA (10 mM in DMSO) was added to a final concentration of 1 mM. The enzyme was incubated at 37° C. for 1 hour. Activated protease was added to the masked antibodies at a ratio of 1:1000 antibody:protease (e.g., 1 ug MMP to 1 mg antibody) or an equal amount of buffer was added to negative control samples. Samples were incubated at 37° C. overnight.
Polystyrene 96-well microplates (Fisher #07-200-591) were coated with 1 μg/mL of human CTLA4-Fc (R&D #7268-CT) per well and stored overnight at 4° C. Plates were washed with 0.05% Tween in TBS (TBS-T), blocked with 1% BSA (Sigma Aldrich #B4287-25G), and washed with TBS-T. Serial dilutions of samples containing anti-CTLA4 antibodies were made in assay buffer (PBS+0.05% Tween+1% BSA), added to plate, and shaken orbitally at 100 RPM at room temperature for one hour. After washing with TBS-T, anti-human Kappa light chain [clone: SB81a]-HRP (Abcam #ab79115) diluted to 1:8000 in assay buffer was applied to the wells and shaken at room temperature for one hour. Plates were washed with TBS-T, HRP substrate (Super Signal Pico Chemiluminescent Substrate, Thermo #37069) was applied to plate, and luminescence was recorded using a spectrophotometer (BioTek). Data was analyzed with GraphPad Prism.
Humanized anti-CTLA4 antibodies were used in low density antigen binding ELISA described in Example 7. For assessing activation of masked activatable forms of the humanized anti-CTLA4 antibodies, recombinant proteases were used as outlined in Example 6.
Serial dilutions of the antibodies were made in assay buffer, added to 96-well microplates coated with human CTLA4-Fc, and shaken at room temperature for one hour. Plates were washed with TBS-T, blocked with BSA, and washed again with TBS-T. The antibodies were added to plate and shaken. After washing, anti-human Kappa light chain (conjugated to HRP) in assay buffer was applied to the wells and shaken at room temperature. Plates were washed again before HRP substrate was added. Luminescence was recorded using a spectrophotometer and data analyzed with GraphPad Prism.
FIG. 10A and FIG. 10B show binding studies with masked and unmasked versions of Antibody 2 in the absence (FIG. 10A) or presence (FIG. 10B) of protease. […] Higher concentrations of antibodies are necessary to show binding as evidenced by the shift to the right of the unmasked Antibody 2-6 and the IgG1 isotype (FIG. 10A). Masked antibodies are considered occluded by masking peptide. The occlusion of each masked antibody is shown in Table 7, below, and is calculated by dividing the EC50 for the masked antibody by the EC50 of the unmasked parental antibody, Antibody 2-6.
Unmasked parental Antibody 2-6 was included as a control and was not exposed to protease. Protease digestion was performed according to the protocol provided in Example 6.
A comparison of the in vitro sensitivity of the cleavable peptide sequences to select proteases is shown as radar plots in FIG. 11A-H. Activation of each antibody by each protease on the radar plot is depicted using a radar plot, where activation is depicted as ranging from 0 (no activation) to 1.0 (full activation). […] The occlusion of each masked antibody is shown in Table 12, below, and is calculated by dividing the EC50 for the masked antibody by the EC50 of the unmasked parental antibody, Antibody 2-6. Binding was conducted according to the protocol provided in Example 7 and Example 8 and proteolytic treatment of the antibodies was conducted to according to the protocol provided in Example 6 and Example 8. A solution of masked anti-CTLA4 antibody (1000 nM) was made in appropriate cleavage buffer. Two antibody samples were aliquoted into two 0.5 mL Eppendorf tubes. […]
For B1, the Occlusion is listed as 49.

With B2, the Occlusion stood at 62.

In turn, B3 registered an Occlusion of 79.

B4 returned an Occlusion of 5.

For the molecule B5, the Occlusion was 21.

B6 had an Occlusion of 51.

Still in this assay, the particulars now being: Table 8, activated by protease; 0 (no activation) to 1.0 (full activation).
Molecule B1 had an Activation of 1.00.

For B2, the Activation turned out to be 1.00.

B3 displayed an Activation of 1.00.

For the molecule B4, the Activation is given as 1.03.

B5 returned an Activation of 1.01.

B6 came in with an Activation of 1.00.

Still in this assay, the particulars now being: Table 13, Protease +.
Turning to B1, the Activation was determined as 1.0 and the Occlusion is on record as 0.8.

The same assay, now with this note: Table 13, Protease −.
Take B1: the Occlusion was 49.
